# From publication PMC7819943, “Rice protein-binding microarrays: a tool to detect cis-acting elements near promoter regions in rice”
# The other results are listed elsewhere or left out.
# Target: T1, OsWOX13 (Oryza sativa, UniProt Q5QMM3 1-267)
# T1 sequence: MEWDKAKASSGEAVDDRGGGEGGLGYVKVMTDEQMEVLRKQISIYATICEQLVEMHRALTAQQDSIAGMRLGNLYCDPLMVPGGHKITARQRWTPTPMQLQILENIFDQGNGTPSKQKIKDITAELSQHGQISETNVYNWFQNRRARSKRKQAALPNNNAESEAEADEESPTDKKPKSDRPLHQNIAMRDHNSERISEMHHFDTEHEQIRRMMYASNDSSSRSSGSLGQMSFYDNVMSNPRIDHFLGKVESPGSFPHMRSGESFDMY
# Assay: protein-binding microarray (RPBM); PBS, 2% BSA, 51.3 ng/ul salmon testes DNA, 50 uM zinc acetate, 200 nM TF, 25 C, 1 h; high values mean tight binding
# Settings: protein: recombinant; tags: N-terminal polyhistidine and DsRed monomer fusion (pET32a); label: CyDye5-dUTP incorporated in the synthesized complementary strand; 3' TTTTT single-stranded linker to array surface; dsDNA, one strand shown
# How it was run: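 The binding signal is fluorescence intensity per feature, in arbitrary units, read on an Axon 4000B scanner. Polyhistidine- and DsRed-tagged transcription factors (N-terminal fusions) from E. coli BL21-CodonPlus were purified on Ni–NTA and applied at 200 nM for 1 h at 25 °C to a double-stranded, BSA-blocked custom Agilent array in buffer with 50 µM zinc acetate.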
row,Sequence,binding signal
1,ACATGACTCTATAAATCATCATATCATCTTTGTGTAGGCCCGGAGTCACCTAGTGCAG,5290 fluorescence intensity (a.u.)
2,TGAAATTAATGGACATCCTCAAATGATAACAATCCTTTCCCGGAGTCACCTAGTGCAG,12400 fluorescence intensity (a.u.)
3,CTGTTAGATTGGATAAGATAGAGTTTGTTAGGTTGTTAGCCGGAGTCACCTAGTGCAG,31000 fluorescence intensity (a.u.)
4,TAAAAGGAGAGTCAATCAAACAAAGTTAATAGAACAAGGTCGGAGTCACCTAGTGCAG,5080 fluorescence intensity (a.u.)
5,TAATTAATTAAGTATTAGTTAAAGATAATTGAAAAGATGGCGGAGTCACCTAGTGCAG,47100 fluorescence intensity (a.u.)
6,TGCTAACTGACGTCTGAGGTGGCTCGTGTGCAGTCGTCCACGGAGTCACCTAGTGCAG,4560 fluorescence intensity (a.u.)
7,CCAATTAATCAGGAGTCAATGACTCGCCTCATTTTACCTTCGGAGTCACCTAGTGCAG,13000 fluorescence intensity (a.u.)
8,TTCTTTCCGTGATTGGGGCTCGATGCGATGTAGTCTAGTGCGGAGTCACCTAGTGCAG,22200 fluorescence intensity (a.u.)
9,TGAGCTATCAGTCATGATTGCAGCCAACATGTAATTGTAACGGAGTCACCTAGTGCAG,11800 fluorescence intensity (a.u.)
10,ACTGTGACACATGATGAACTGTTTATTTTGCATGATCTATCGGAGTCACCTAGTGCAG,5480 fluorescence intensity (a.u.)
11,AGGTAAGCATATAATTAGATACAATTAGGAGCAGCGGGAGCGGAGTCACCTAGTGCAG,3330 fluorescence intensity (a.u.)
12,TGAAATTGATCTTGTTTATTTCGTTTGGGAGAAACCTGTTCGGAGTCACCTAGTGCAG,16700 fluorescence intensity (a.u.)
13,TAGCTAATTTTACTTTCATTGATGCTGTACAGTGTCTTCGCGGAGTCACCTAGTGCAG,11600 fluorescence intensity (a.u.)
14,CTTCTTACTAATGGGCAAATCATGAAAGAAGTGCGGGAGTCGGAGTCACCTAGTGCAG,7910 fluorescence intensity (a.u.)
15,TCCGCCTAATCAGAGCCGTTTGATTCTATGCTTTGGGCAACGGAGTCACCTAGTGCAG,5590 fluorescence intensity (a.u.)
16,GTTTTGCTATGTGGATTGATCGTTTGCTGTGTTCGTTGGACGGAGTCACCTAGTGCAG,3230 fluorescence intensity (a.u.)
17,TTGAAAACTTTCAAATCAAGATTTGAAAACTTTCAACTCGCGGAGTCACCTAGTGCAG,6030 fluorescence intensity (a.u.)
18,CTGATTACCTCTTGTCTAAACTAACGTCCTCAAGTGGAATCGGAGTCACCTAGTGCAG,17900 fluorescence intensity (a.u.)
19,GTATTATATTATTAATTAATCGCCGTCACCTCGTCGCCATCGGAGTCACCTAGTGCAG,15700 fluorescence intensity (a.u.)
20,GGCCTCCAATCACCCTTATCGTCAGAGGAACACCGCTGCACGGAGTCACCTAGTGCAG,11300 fluorescence intensity (a.u.)
21,ATTTCAATCTTAGAATAGATTATGCTTTTCATCTCATTTTCGGAGTCACCTAGTGCAG,8940 fluorescence intensity (a.u.)

row,Sequence,binding signal
1,TATAGCAAAATTGATAAACTTAAAGTTGTGCCATTGTTTACGGAGTCACCTAGTGCAG,5280 fluorescence intensity (a.u.)
2,TTTGACTGCACGTCGACTGGTGGATGGATGAGATATTGAGCGGAGTCACCTAGTGCAG,9720 fluorescence intensity (a.u.)
3,AAATGTAATTTGTATGATATTGTAGCTAGACTGTTTGGAGCGGAGTCACCTAGTGCAG,10700 fluorescence intensity (a.u.)
4,CCCTATCAATTACCTTCACTATCATATTAATCATTGTAGGCGGAGTCACCTAGTGCAG,24100 fluorescence intensity (a.u.)
5,TAGATAGATAGATAGATATAGTTGGTGTGTTTGACCCTAGCGGAGTCACCTAGTGCAG,36400 fluorescence intensity (a.u.)
6,TTAATTCCATTAATATAATAGATAGATTTCATGGTCTGGGCGGAGTCACCTAGTGCAG,14100 fluorescence intensity (a.u.)
7,GGAATAATGATTAATCGATGACAGTGGCAAAAGCTATCGGCGGAGTCACCTAGTGCAG,22400 fluorescence intensity (a.u.)
8,AATTTCTATTATTTCCTAATTGTATTTCTATATGGACTCTCGGAGTCACCTAGTGCAG,3670 fluorescence intensity (a.u.)
9,TTATAACAATTAATTAAATGTTTCGCGTGTAGTACAATTTCGGAGTCACCTAGTGCAG,26500 fluorescence intensity (a.u.)
10,TCCTATTAATTTCTTAAGTCCAAACTTTCTCTACCGTCAGCGGAGTCACCTAGTGCAG,9410 fluorescence intensity (a.u.)
11,TGGATGTGATATGATGTGATGGAAAGTTAAAAGTTTAAGGCGGAGTCACCTAGTGCAG,6010 fluorescence intensity (a.u.)
12,ATGGATCCAATTAACCCTATTTATATAATGTCAAACGCTTCGGAGTCACCTAGTGCAG,10200 fluorescence intensity (a.u.)
13,TATAACATAATTACATAGCAATTGTGCTACAATAACATTTCGGAGTCACCTAGTGCAG,10900 fluorescence intensity (a.u.)
14,AATATCTAATTGATGCAATTGAAATTGATGTTGATGCATTCGGAGTCACCTAGTGCAG,50300 fluorescence intensity (a.u.)
15,TTGCTGTAGATTTACAAATTTACAATAGCCAAAAGCTGAACGGAGTCACCTAGTGCAG,3590 fluorescence intensity (a.u.)
16,GGCTCATTGATAATATACGGATTAGATGGAAAAGAGAAAACGGAGTCACCTAGTGCAG,3470 fluorescence intensity (a.u.)
17,GGTAGATTATGGTCAAGATTAGTTGGCCAGCTTTTGGGAACGGAGTCACCTAGTGCAG,22600 fluorescence intensity (a.u.)
18,TGCGGCTTTGATTTGCGGGGTTCACACACGAGTAATTGCACGGAGTCACCTAGTGCAG,3210 fluorescence intensity (a.u.)
19,TTTTGACAGCCCTACCTCAACCTCAATACCATTGACAGCACGGAGTCACCTAGTGCAG,4980 fluorescence intensity (a.u.)
20,CTATATGTTGTCAAGTAGGAGATTGACTTGTTCTATGTAACGGAGTCACCTAGTGCAG,3400 fluorescence intensity (a.u.)
21,TTCTATGATTGATTGGTCGATAGGAAGACATATAACAGCGCGGAGTCACCTAGTGCAG,65500 fluorescence intensity (a.u.)

row,Sequence,binding signal
1,ACATATATAAGTTGATTGATTTGTTATTATAGACGACGAGCGGAGTCACCTAGTGCAG,55400 fluorescence intensity (a.u.)
2,CCGTGACAAGCCGATCACTGCCCCTTCATCTGCGATGCTCCGGAGTCACCTAGTGCAG,3520 fluorescence intensity (a.u.)
3,TCTATAAACTTAATCAAATTTAAAGAAATTTGATATATAACGGAGTCACCTAGTGCAG,4200 fluorescence intensity (a.u.)
4,GCTGATTGCACCCAAACCGGATCGGCCGCCCACGAAGCTTCGGAGTCACCTAGTGCAG,22900 fluorescence intensity (a.u.)
5,CTAGACCTGATTGGAAGAGGAGACATGGGTATATGAGATGCGGAGTCACCTAGTGCAG,28100 fluorescence intensity (a.u.)
6,CCCGTGGCTCGACTTGATGGCGTGGAGAATGGACGAGTACCGGAGTCACCTAGTGCAG,6970 fluorescence intensity (a.u.)
7,ATCCTTTTCTCCTTTTCTCGCAAAATCTCCAAAACCGCTTCGGAGTCACCTAGTGCAG,65500 fluorescence intensity (a.u.)
8,TTCCAACCAATCATAACCCAATAAGAGCAAAATGGAAAACCGGAGTCACCTAGTGCAG,4060 fluorescence intensity (a.u.)
9,CAAGGAATTTAATTTTGACATGGAACAGTTCGATTCCCGCCGGAGTCACCTAGTGCAG,10600 fluorescence intensity (a.u.)
10,CGCCACATGACAATGACTGACAGGCTGGCCCCACGTCCTACGGAGTCACCTAGTGCAG,8550 fluorescence intensity (a.u.)
11,GCCAAATTGATGTAGCAAACAATGTTTCGTCATATTAGTCCGGAGTCACCTAGTGCAG,45600 fluorescence intensity (a.u.)
12,GCTTCCAATCAACCTCCTCTTCCTTCCTAAGCTACGCCAACGGAGTCACCTAGTGCAG,14300 fluorescence intensity (a.u.)
13,TCCACTCAATCTTCTGTTTCTATTTCCCCGTAATCGAAGCCGGAGTCACCTAGTGCAG,4630 fluorescence intensity (a.u.)
14,TCTAATTAATCCATCATTAGCAAATGTTTACTGTAGCACTCGGAGTCACCTAGTGCAG,30900 fluorescence intensity (a.u.)
15,TAGTAGTTAATAATTAATTAATTATGCTCTAATGAACTTTCGGAGTCACCTAGTGCAG,44100 fluorescence intensity (a.u.)
16,GCAACTTAGGGTCAACCAATCAGCGGTTATAGTAACTGAACGGAGTCACCTAGTGCAG,3390 fluorescence intensity (a.u.)
17,GCTGCAATCACAGAAACCTCAGCTCACTCTGGAAGAAGCCCGGAGTCACCTAGTGCAG,5420 fluorescence intensity (a.u.)
18,AGCTAATGTATAGTGATGGCGATAAAGCTTTTGGAACATCCGGAGTCACCTAGTGCAG,6140 fluorescence intensity (a.u.)
19,GCTTAATGGAATAATGGAAGCACGCGGCAAAGACGATGGTCGGAGTCACCTAGTGCAG,22900 fluorescence intensity (a.u.)
20,ACAAAATCTGATAATTGCAGCCTCCCAAGTCCCAACCTTCCGGAGTCACCTAGTGCAG,5520 fluorescence intensity (a.u.)
21,ATCACATATTCTAATTGATCCTGTTCCTGATCATGTACCGCGGAGTCACCTAGTGCAG,12600 fluorescence intensity (a.u.)

row,Sequence,binding signal
1,AACAGCAGCAAATTGATGGAAGCCCCAGGTTATTGGCTGGCGGAGTCACCTAGTGCAG,14900 fluorescence intensity (a.u.)
2,TTCCTGATAGATGGTGTCAGGCATTTCACTGAATGATCTACGGAGTCACCTAGTGCAG,18600 fluorescence intensity (a.u.)
3,TCTTTTATAATCTTTAACTGATTAAATCAAACGATTCTAACGGAGTCACCTAGTGCAG,4540 fluorescence intensity (a.u.)
4,AATTTGATTTGATTACATTACACATTTATACATCTCTCATCGGAGTCACCTAGTGCAG,42200 fluorescence intensity (a.u.)
5,ATATAAGTGATTTTGGTTGGATGTGACATATCCTAGTACACGGAGTCACCTAGTGCAG,5120 fluorescence intensity (a.u.)
6,GGTAATGACGAAATTTGACCAATTTTGGCATTAATATATTCGGAGTCACCTAGTGCAG,13100 fluorescence intensity (a.u.)
7,ATTAATTTCTAGATGTAATCTTATCTTCTATATATGCATACGGAGTCACCTAGTGCAG,11000 fluorescence intensity (a.u.)
8,TCCGTATGTTAACAGATTAGGTCCATATAAATAGAAAGGACGGAGTCACCTAGTGCAG,5480 fluorescence intensity (a.u.)
9,AAATCCAATTGAATAAATTATGTATGTTTAAAAGAGTAATCGGAGTCACCTAGTGCAG,5630 fluorescence intensity (a.u.)
10,AATATTGATGCTTAAATTTCTTTCGAAGATCCTATGGAAGCGGAGTCACCTAGTGCAG,3840 fluorescence intensity (a.u.)
11,ATTGATGGGTACATTGAGATGGAGCTGTTTGGACAAGTTGCGGAGTCACCTAGTGCAG,7520 fluorescence intensity (a.u.)
12,AACTTTAGACATATATAAATTTATAGACAAATATATAGTACGGAGTCACCTAGTGCAG,10200 fluorescence intensity (a.u.)
13,CTTTAATTAAAGATTCCTATCCTCTCCAATGATTCTTTGCCGGAGTCACCTAGTGCAG,31200 fluorescence intensity (a.u.)
14,ACTAATGTAATTTCAATATATTTATAATGTAAGTCCCTAACGGAGTCACCTAGTGCAG,13900 fluorescence intensity (a.u.)
15,CTCTGATTTCGTAGAGGTCCTGCATATACTTGTTGCTTGCCGGAGTCACCTAGTGCAG,5950 fluorescence intensity (a.u.)
16,TATAAATTATATGTGTAGCTGTACTAGCTAGAGTGTATCTCGGAGTCACCTAGTGCAG,8200 fluorescence intensity (a.u.)
17,CAGTTGATAATTAATTAGTGTCATAATCCAATGTTGCCGTCGGAGTCACCTAGTGCAG,45800 fluorescence intensity (a.u.)
18,CCTCGCGCGCAGATAATTATCACAACTTATGGGGAGCTTGCGGAGTCACCTAGTGCAG,3290 fluorescence intensity (a.u.)
19,ATGTGAATTATGAAAGATGATGATTTAACGTGCTTTTATTCGGAGTCACCTAGTGCAG,5500 fluorescence intensity (a.u.)
20,AGGTGATGACGTGGATAGTCTGACAGGTGGGGCACACGTGCGGAGTCACCTAGTGCAG,6570 fluorescence intensity (a.u.)
21,TGATAGACATATTTCAATCCAACTACCTATTCTTTTAATGCGGAGTCACCTAGTGCAG,4520 fluorescence intensity (a.u.)
